# According to PubChem BioAssay (Tox21):
# Values joined by “and” are separate entries in the source; they are usually repeats but may differ in a detail not shown here. Equal values may be shown once. The shares of active, inactive and inconclusive entries below differ from those in the screen. Potencies of inconclusive entries are doubtful fits and often do not repeat. Where a structure was tested more than once in an assay, its records may differ in their call. Active and inactive are the calls of the source. Unless noted, calls come from the whole dose curve; as a rule, active = well fitted curve in the direction sought with a large enough effect in the repeat runs; inconclusive = weak or mixed curves; inactive = no such curve, though single readings can be large; an effect the other way counts as inactive or inconclusive.
# Legend:
# [1] = qHTS assay to identify small molecule antagonists of the sonic hedgehog signaling (Shh) pathway - cell viability counter screen (AID 1259367); note: nearly all actives have a fitted effect of over 55% in size
# In short: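 Fluorescence read-out (CellTiter-Fluor, 1 hr at 37C) taken after 23 hr compound treatment of 3T3 Gli1-Luc cells stimulated with conditioned medium. Cells were seeded at 2,000 per well and pre-incubated 4 hr.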
# [2] = qHTS assay to identify small molecule agonists of the sonic hedgehog signaling (Shh) pathway - cell viability counter screen (AID 1259366); note: nearly all actives have a fitted effect of over 50% in size
# In short: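 Viability measured fluorometrically (CellTiter-Fluor, 1hr, 37C) in 3T3 Gli1-Luc reporter cells after 23hr compound exposure within a 24hr incubation at 37C/5% CO2.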
# [3] = qHTS assay to identify small molecule antagonists of the sonic hedgehog signaling (Shh) pathway (AID 1259369; calls by dose curve; note: nearly all actives have a fitted effect of over 45% in size)
# In short: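 Read-out is luminescence from a firefly luciferase gene controlled by the Gli1 response element, in 3T3Gli1-Luc cells pre-incubated 4hr then exposed to compounds and conditioned medium for 24hr.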
# [4] = target: Estrogen receptor beta (Homo sapiens) (UniProt Q92731); test: qHTS assay to identify small molecule antagonists of the estrogen receptor beta (ER-beta) signaling pathway (AID 1259378; active = well fitted inhibition curve with a large enough effect in the signal ratio in the repeat runs, not every such curve was filed as active; inconclusive = weak or mixed curves, or effect the other way; inactive = no such curve, though single readings can be large or run the other way; the % refers to the signal ratio; for activity, negative = inhibition: % is set by controls: 0 for no effect and ±100 for the full control effect); conditions: ER-beta-UAS-bla HEK293T, beta-lactamase FRET ratio, 16 h; activity, negative = inhibition: at 92.4 µM (top of the series) unless noted
# Sequence of UniProt Q92731 (Q92731 whole entry, looked up): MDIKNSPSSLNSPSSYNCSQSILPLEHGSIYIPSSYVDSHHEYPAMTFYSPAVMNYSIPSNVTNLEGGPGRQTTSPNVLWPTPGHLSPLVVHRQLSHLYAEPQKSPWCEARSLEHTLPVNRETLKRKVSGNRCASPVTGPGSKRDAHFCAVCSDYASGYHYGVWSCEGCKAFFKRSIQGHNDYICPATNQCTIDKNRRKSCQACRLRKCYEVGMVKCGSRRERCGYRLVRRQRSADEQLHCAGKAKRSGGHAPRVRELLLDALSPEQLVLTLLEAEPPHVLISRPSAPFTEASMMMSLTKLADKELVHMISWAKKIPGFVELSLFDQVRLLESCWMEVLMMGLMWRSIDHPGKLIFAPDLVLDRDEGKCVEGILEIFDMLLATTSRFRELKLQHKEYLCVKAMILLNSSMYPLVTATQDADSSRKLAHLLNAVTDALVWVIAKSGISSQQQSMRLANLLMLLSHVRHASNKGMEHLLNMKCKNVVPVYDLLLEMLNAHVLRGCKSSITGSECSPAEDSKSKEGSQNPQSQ
# In short: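 ER-beta-UAS-bla HEK293T cells in 2% charcoal-stripped FBS medium treated with compound plus 1nM final 17-beta-estradiol for 16 hr at 37C. Beta-lactamase reporter read by FRET substrate fluorescence after 2 hours at room temperature.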
# [5] = qHTS assay to identify small molecule agonists of the androgen receptor (AR) signaling pathway in the presence of an antagonist - cell viability counter screen (AID 1259379); note: nearly all actives have a fitted effect of over 25% in size
# In short: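 Each compound was tested at 15 concentrations on MDA-kb2 cells in the presence of 3.0uM nilutamide. Viability was measured by CellTiter-Fluor fluorescence after a 16 hr incubation at 37C in a CO2-free atmosphere.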
# [6] = qHTS assay to identify small molecule antagonists of the estrogen receptor beta (ER-beta) signaling pathway - cell viability counter screen (AID 1259382); note: nearly all actives have a fitted effect of over 55% in size
# In short: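 CellTiter-Glo ATP luminescence measured after the LiveBLAzer read in the same wells; ER-beta-UAS-bla HEK293T cells, 16 hr compound treatment with 1nM 17-beta-estradiol agonist at 37C, 5% CO2.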
# [7] = qHTS assay to identify small molecule agonists of the estrogen receptor beta (ER-beta) signaling pathway - cell viability counter screen (AID 1259380); note: nearly all actives have a fitted effect of over 30% in size
# In short: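 Compounds dissolved in DMSO were pin-transferred onto ER-beta-UAS-bla HEK293T cells that had settled 6 hr, and exposure ran 16 hr at 37C. Following the reporter read, CellTiter-Glo luminescence after 30 min at room temperature indicated cytotoxicity.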
# [8] = target: Thyrotropin receptor (Homo sapiens) (UniProt P16473); test: qHTS assay to identify small molecule antagonists of the thyroid stimulating hormone receptor (TSHR) signaling pathway (AID 1259385; calls by dose curve; note: nearly all actives have a fitted effect of over 20% in size; for activity change, negative = inhibition: % is set by controls: 0 for no effect and ±100 for the full control effect); conditions: TSHR-HEK293 cAMP HTRF, TSH-stimulated antagonist mode; activity change, negative = inhibition: at 92.4 µM (top of the series) unless noted
# Sequence of UniProt P16473 (P16473 whole entry, looked up): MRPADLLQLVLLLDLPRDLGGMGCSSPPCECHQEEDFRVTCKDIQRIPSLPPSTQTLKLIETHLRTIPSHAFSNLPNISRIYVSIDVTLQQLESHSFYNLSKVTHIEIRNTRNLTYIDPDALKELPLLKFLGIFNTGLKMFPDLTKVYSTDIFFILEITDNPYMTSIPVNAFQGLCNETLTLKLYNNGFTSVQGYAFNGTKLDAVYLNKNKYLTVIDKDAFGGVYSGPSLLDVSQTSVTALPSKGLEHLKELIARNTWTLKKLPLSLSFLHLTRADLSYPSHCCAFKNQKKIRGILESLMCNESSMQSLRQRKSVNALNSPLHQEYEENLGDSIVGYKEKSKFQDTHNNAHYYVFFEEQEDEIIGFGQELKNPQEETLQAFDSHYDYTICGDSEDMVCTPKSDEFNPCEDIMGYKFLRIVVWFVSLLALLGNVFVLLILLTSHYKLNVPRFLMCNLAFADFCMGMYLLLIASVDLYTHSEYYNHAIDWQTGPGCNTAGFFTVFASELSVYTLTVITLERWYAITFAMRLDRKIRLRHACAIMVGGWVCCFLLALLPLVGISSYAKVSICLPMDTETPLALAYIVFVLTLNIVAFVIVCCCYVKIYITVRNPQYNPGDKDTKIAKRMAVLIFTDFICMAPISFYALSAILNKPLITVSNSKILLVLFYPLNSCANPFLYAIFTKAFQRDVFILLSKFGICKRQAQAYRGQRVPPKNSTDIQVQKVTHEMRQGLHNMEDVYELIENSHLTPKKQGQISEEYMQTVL
# In short: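 TSHR-HEK293 cells (800/well) plated 18 h, then compounds with Ro20-1724 and TSH at 1.5 ng/mL final, 30 min at room temperature. cAMP quantified by HTRF (cAMP-d2/anti-cAMP-cryptate, 1 h); 15 concentrations in triplicate.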
# [9] = qHTS assay to identify small molecule agonists of the estrogen receptor alpha (ER-alpha) signaling pathway in the presence of an antagonist - cell viability counter screen (AID 1259386);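 note: cells exposed to compounds for 22 h at 37 °C before the viability read; nearly all actives have a fitted effect of over 30% in size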
# In short: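 Using estrogen-depleted VM7Luc4E2 cells, the 15-concentration compound series was applied together with 10.0nM ICI-182,780 and incubated 22hr at 37C/5% CO2. Cell viability was then scored by CellTiter-Fluor.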
# [10] = target: Estrogen receptor (Homo sapiens) (UniProt P03372); test: qHTS assay to identify small molecule agonists of the estrogen receptor alpha (ER-alpha) signaling pathway in the presence of an antagonist (AID 1259383; calls by dose curve; note: nearly all actives have a fitted effect of over 15% in size)
# Sequence of UniProt P03372 (P03372 whole entry, looked up): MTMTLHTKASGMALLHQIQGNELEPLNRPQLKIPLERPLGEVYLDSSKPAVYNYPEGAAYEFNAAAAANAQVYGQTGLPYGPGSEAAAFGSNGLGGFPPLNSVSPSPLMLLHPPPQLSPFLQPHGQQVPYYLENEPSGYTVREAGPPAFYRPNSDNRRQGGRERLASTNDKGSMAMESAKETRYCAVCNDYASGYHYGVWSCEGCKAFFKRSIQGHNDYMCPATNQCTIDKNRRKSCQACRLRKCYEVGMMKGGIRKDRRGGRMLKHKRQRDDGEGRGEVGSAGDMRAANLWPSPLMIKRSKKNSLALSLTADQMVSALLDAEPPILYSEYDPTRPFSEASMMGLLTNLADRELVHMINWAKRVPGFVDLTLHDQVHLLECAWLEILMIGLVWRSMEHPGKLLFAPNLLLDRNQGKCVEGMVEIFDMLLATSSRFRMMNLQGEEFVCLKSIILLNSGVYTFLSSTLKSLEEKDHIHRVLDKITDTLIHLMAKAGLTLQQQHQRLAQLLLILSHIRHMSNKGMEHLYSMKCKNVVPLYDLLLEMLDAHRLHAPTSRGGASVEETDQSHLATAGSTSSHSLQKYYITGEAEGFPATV
# In short: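 Luminescent ERE-luciferase reporter, VM7Luc4E2 cells (endogenous ER-alpha); 10.0nM ICI-182,780 final; 15-point compound titration; 22hr at 37C; ONE-Glo, 30min RT.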
# [11] = target: Estrogen receptor beta (Homo sapiens) (UniProt Q92731); test: qHTS assay to identify small molecule agonists of the estrogen receptor beta (ER-beta) signaling pathway (AID 1259377; active = well fitted activation curve with a large enough effect in the signal ratio in the repeat runs, not every such curve was filed as active; inconclusive = weak or mixed curves, or effect the other way; the % refers to the signal ratio; for activation: % is set by controls: 0 for no effect and ±100 for the full control effect); conditions: ER-beta-UAS-bla HEK293T, beta-lactamase FRET ratio, 16 h
# In short: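 A UAS-controlled beta-lactamase reporter in ER-beta-UAS-bla HEK293T cells reports receptor activation. Compounds act for 16 hr at 37C in 2% charcoal-stripped serum, and a FRET substrate is read by fluorescence after 2 hours.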
# [12] = target: Androgen receptor (Homo sapiens) (UniProt P10275); test: qHTS assay to identify small molecule agonists of the androgen receptor (AR) signaling pathway in the presence of an antagonist (AID 1259381; calls by dose curve; note: nearly all actives have a fitted effect of over 15% in size; for activation: % is set by controls: 0 for no effect and ±100 for the full control effect)
# Sequence of UniProt P10275 (P10275 whole entry, looked up): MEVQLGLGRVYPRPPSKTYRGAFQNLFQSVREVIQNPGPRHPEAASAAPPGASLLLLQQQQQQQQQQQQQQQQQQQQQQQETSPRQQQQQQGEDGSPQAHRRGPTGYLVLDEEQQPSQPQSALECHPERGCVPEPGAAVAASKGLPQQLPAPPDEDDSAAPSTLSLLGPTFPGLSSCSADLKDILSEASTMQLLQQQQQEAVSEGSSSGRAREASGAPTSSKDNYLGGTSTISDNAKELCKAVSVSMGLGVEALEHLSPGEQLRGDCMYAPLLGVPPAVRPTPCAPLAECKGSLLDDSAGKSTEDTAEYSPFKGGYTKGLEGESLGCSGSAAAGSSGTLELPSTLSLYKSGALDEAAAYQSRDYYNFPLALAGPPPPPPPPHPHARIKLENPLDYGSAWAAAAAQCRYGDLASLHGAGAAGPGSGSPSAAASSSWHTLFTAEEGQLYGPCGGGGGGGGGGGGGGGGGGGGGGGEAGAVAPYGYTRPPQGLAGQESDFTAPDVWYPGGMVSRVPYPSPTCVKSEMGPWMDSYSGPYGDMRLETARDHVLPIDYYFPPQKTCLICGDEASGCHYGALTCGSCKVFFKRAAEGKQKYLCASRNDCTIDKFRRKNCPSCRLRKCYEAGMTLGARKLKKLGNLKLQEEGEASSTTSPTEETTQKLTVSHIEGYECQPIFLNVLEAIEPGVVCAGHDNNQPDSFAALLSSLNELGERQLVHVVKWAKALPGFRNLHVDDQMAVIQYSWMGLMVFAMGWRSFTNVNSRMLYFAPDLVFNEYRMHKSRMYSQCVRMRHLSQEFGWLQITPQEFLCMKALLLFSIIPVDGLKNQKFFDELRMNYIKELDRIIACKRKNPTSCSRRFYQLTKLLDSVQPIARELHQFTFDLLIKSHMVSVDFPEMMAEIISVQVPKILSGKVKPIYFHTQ
# In short: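 Plated MDA-kb2 cells (3,000/well) were pre-incubated 5hr, given nilutamide (3.0uM final) or buffer, then dosed with compounds in DMSO at 15 concentrations. Luciferase activity was quantified by luminescence after 16hr at 37C.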
# [13] = activation: at 92.4 µM (top of the series) unless noted
# Potency is the fitted concentration of half-maximal effect; tags give direction and shape of the fitted curve or compound fluorescence and quenching.
smiles,measurement,setting,value
COC(=O)NCCC[Si](OC)(OC)OC,Potency,[1],"inconclusive: 61.1 µM [cytotoxic, single point]"
CCCCCCCOC(=O)c1ccc(O)cc1,Potency,[2],"inconclusive: 68.7 µM [cytotoxic, partial curve, poor fit]"
same,Potency,[1],"inconclusive: 54.5 µM [cytotoxic, partial curve]"
same,Potency,[3],"active: 43.3 µM and inconclusive: 30.6 µM [inhibitor, full curve, poor fit]"
same,Potency,[4],inconclusive: 27.3 µM
same,Potency,[5],inactive
same,Potency,[6],"inconclusive: 27.3 µM [cytotoxic, single point] and inconclusive: 27.3 µM [cytotoxic, full curve]"
CC(C)(C)c1cc(/C=C2\SC(=N)NC2=O)cc(C(C)(C)C)c1O,Potency,[2],inactive
same,Potency,[3],"inconclusive: 61.1 µM [inhibitor, partial curve, poor fit]"
same,Potency,[4],active: 21.7 µM
same,Potency,[7],"inconclusive: 68.6 µM [cytotoxic, single point]"
same,Potency,[8],inactive
same,Potency,[9],"inconclusive: 43.3 µM [cytotoxic, partial curve]"
CC1CC(OC(=O)c2ccccc2O)CC(C)(C)C1 (stereo not given),Potency,[2],"inconclusive: 76.2 µM [cytotoxic, single point]"
same,Potency,[1],active: 60.5 µM
same,Potency,[7],"inconclusive: 68.6 µM [cytotoxic, single point]"
C=C1C(C)(C)[C@@]2(Cl)C(Cl)[C@]1(Cl)C(Cl)(Cl)C2(Cl)Cl (stereo not given in full),Potency,[2],inconclusive: 67.3 µM [cytotoxic]
same,Potency,[3],active: 21.3 µM
same,Potency,[4],active: 30.1 µM
same,Potency,[7],active: 60 µM
same,Potency,[6],"inconclusive: 67.3 µM [cytotoxic, single point]"
COc1cc([C@@H]2c3cc4c(cc3[C@@H](O[C@@H]3O[C@@H]5CO[C@@H](C)O[C@H]5[C@H](O)[C@H]3O)[C@H]3COC(=O)[C@H]23)OCO4)cc(OC)c1O,Potency,[2],"inconclusive: 67.8 µM [cytotoxic, single point]"
same,Potency,[3],"inconclusive: 1.7 µM [inhibitor, full curve]"
same,Potency,[4],inactive
NC1(c2ccc(-c3nc4ccn5c(=O)[nH]nc5c4cc3-c3ccccc3)cc2)CCC1,Potency,[2],active: 13.3 µM
same,Potency,[1],"inconclusive: 4.73 µM [cytotoxic, partial curve]"
same,Potency,[3],active: 0.0944 µM
same,Potency,[4],"inconclusive: 1.19 µM [activator, full curve]"
same,Potency,[7],active: 1.19 µM
same,Potency,[6],active: 2.11 µM
same,Potency,[8],active: 29.8 µM
same,Potency,[9],"inconclusive: 1.19 µM [cytotoxic, full curve]"
CC(C)(C)CC(C)(C)c1ccccc1O,Potency,[2],active: 54.8 µM
same,Potency,[3],active: 27.4 µM
same,Potency,[10],"inconclusive: 21.8 µM [activator, partial curve]"
C[C@@H](NCCCc1cccc(C(F)(F)F)c1)c1cccc2ccccc12,Potency,[2],"inconclusive: 33.5 µM [cytotoxic, single point]"
same,Potency,[1],"inconclusive: 33.5 µM [cytotoxic, single point]"
same,Potency,[11]; [13],inactive
same,Potency,[4],active: 10.6 µM
same,Potency,[12],inactive
same,Potency,[8],inconclusive: 33.5 µM
c1ccc(Sc2ccccc2)cc1,Potency,[1],"inconclusive: 68.6 µM [cytotoxic, single point]"
same,Potency,[3],active: 27.3 µM
CCOC(=O)[C@H](CCc1ccccc1)N[C@@H](C)C(=O)N1Cc2ccccc2C[C@H]1C(=O)O,Potency,[2],"inconclusive: 21.8 µM [cytotoxic, partial curve]"
same,Potency,[1],"inconclusive: 27.5 µM [cytotoxic, partial curve] and inconclusive: 26.6 µM [cytotoxic, partial curve]"
same,"activity, negative = inhibition",[4],inconclusive: 14.7% [at 42.5 µM]
same,Potency,[10],inactive
same,Potency,[9],"inconclusive: 48.9 µM [cytotoxic, partial curve]"
CCN(CC)c1ccc(N)cc1,Potency,[2],active: 35.3 µM
same,Potency,[1],"inconclusive: 25 µM [cytotoxic, partial curve]"
same,Potency,[4],"inconclusive: 49.9 µM [rising, partial curve]"
same,Potency,[7],"inconclusive: 6.28 µM [cytotoxic, single point]"
same,Potency,[6],active: 49.9 µM
same,Potency,[8],inconclusive: 35.3 µM
CCCCCCO,Potency,[2],inactive
same,Potency,[5],inactive
same,Potency,[8],inactive
C[C@]12C=CC(=O)C=C1CC[C@@H]1[C@@H]2[C@@H](O)C[C@@]2(C)[C@H]1CC[C@]2(O)C(=O)CO,Potency,[2],"inconclusive: 53.7 µM [rising, partial curve]"
same,Potency,[3],"inconclusive: 603 nM [inhibitor, full curve, poor fit] and inconclusive: 30.6 nM [inhibitor, full curve, poor fit]"
COc1ccc2nc(S(=O)Cc3ncc(C)c(OC)c3C)[nH]c2c1 (stereo not given),Potency,[2],"inconclusive: 34 µM [cytotoxic, partial curve]"
same,Potency,[1],"inconclusive: 27 µM [cytotoxic, partial curve]"
same,Potency,[3],"inconclusive: 15.2 µM [inhibitor, full curve] and inconclusive: 18.8 µM [inhibitor, partial curve]"
same,Potency,[11]; [13],"inconclusive: 42.7 µM [rising, partial curve] and inconclusive: 11.9 µM [rising, partial curve]"
same,Potency,[4],"inconclusive: 16.8 µM [rising, partial curve, poor fit]"
same,"activity, negative = inhibition",[4],inconclusive: -58.9%
same,Potency,[5],"inconclusive: 48 µM [cytotoxic, partial curve]"
CCCCCCCCCOC(=O)c1ccc(O)cc1,Potency,[2],active: 60.3 µM
same,Potency,[5],"inconclusive: 67.6 µM [cytotoxic, single point]"
same,Potency,[6],active: 53.7 µM
same,Potency,[8],"inconclusive: 67.6 µM [falling, single point]"
same,Potency,[9],"inconclusive: 47.9 µM [cytotoxic, partial curve]"
C/C=C/C=N/NC(=O)c1ccncc1,Potency,[2],"inconclusive: 33.5 µM [cytotoxic, single point]"
same,"activity, negative = inhibition",[4],inconclusive: 28.4% [at 42.5 µM]
same,Potency,[8],"inconclusive: 29.8 µM [falling, partial curve, poor fit]"
C=C(C)C(=O)OCCCCCCCCCCCC,Potency,[2],"inconclusive: 27.4 µM [rising, single point]"
same,Potency,[1],inactive
same,Potency,[3],inactive
same,activation,[11]; [13],inconclusive: 10.3%
same,activation,[11]; at 92.4 µM (top of the series),inactive: -4.1%
same,"activity, negative = inhibition",[4],inconclusive: 26%
Oc1ccc(-c2ccccc2)c(Cl)c1,Potency,[2],"inconclusive: 68.6 µM [cytotoxic, single point]"
same,Potency,[1],inconclusive: 61.1 µM [cytotoxic]
same,Potency,[3],inactive
same,Potency,[11]; [13],"inconclusive: 24.3 µM [fluorescent, single point]"
same,Potency,[4],active: 21.7 µM
same,Potency,[7],active: 27.3 µM
same,Potency,[12],"inconclusive: 61.1 µM [rising, partial curve]"
CCOc1ccc([N+](=O)[O-])cc1,Potency,[2],"inconclusive: 55.3 µM [cytotoxic, partial curve, poor fit]"
same,Potency,[3],"inconclusive: 49.2 µM [inhibitor, partial curve]"
same,Potency,[4],active: 9.83 µM
same,Potency,[7],"inconclusive: 62 µM [cytotoxic, single point]"
O=C1OC(=O)c2cc(-c3ccc4c(c3)C(=O)OC4=O)ccc21,Potency,[2],"inconclusive: 68.6 µM [cytotoxic, single point]"
same,Potency,[1],"inconclusive: 68.6 µM [cytotoxic, single point]"
same,Potency,[3],active: 17.2 µM
same,"activity, negative = inhibition",[4],inconclusive: 35.6%
NC(=O)N/N=C/c1ccc([N+](=O)[O-])o1,Potency,[2],active: 54.5 µM
same,Potency,[3],active: 10.9 µM and active: 29.8 µM
same,Potency,[4],inconclusive: 68.6 µM
same,Potency,[7],"inconclusive: 24.3 µM [cytotoxic, full curve, poor fit]"
same,"activity change, negative = inhibition",[8],inconclusive: 6.04% [phenotype inactive]
same,Potency,[9],"inconclusive: 26.6 µM [cytotoxic, partial curve]"
CSc1c(Cl)c(Cl)c(Cl)c(Cl)c1Cl,Potency,[2],inactive
same,Potency,[7],"inconclusive: 76.5 µM [cytotoxic, single point]"
same,"activity change, negative = inhibition",[8],inconclusive: -11.6%
CN(C)[C@@H]1C(=O)C(C(N)=O)=C(O)[C@@]2(O)C(=O)C3=C(O)c4c(O)ccc(Cl)c4[C@@H](O)[C@H]3C[C@@H]12,Potency,[2],"inconclusive: 26.6 µM [rising, partial curve]"
same,Potency,[4],"inconclusive: 29.8 µM [rising, partial curve]"
same,Potency,[7],inactive
CCC1(c2cnc[nH]2)Cc2ccccc2C1,Potency,[2],inactive
same,Potency,[4],inconclusive: 21.1 µM [inhibitor]
same,Potency,[7],"inconclusive: 29.8 µM [cytotoxic, single point]"
